Data taken from article PMC4336329 (PLoS ONE, 2015).
The whole screen tested about 310,000 compounds, of which about 14,000 (4.5%) showed an effect of 50% or more. Effects have a minus sign here. The list shows a part of the results.

Each compound was assayed against human ether-à-go-go-related gene (hERG) potassium channel (human, UniProt Q12809) (assay: primary screen, population patch clamp on CHO cells stably expressing hERG).
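Also: peak tail current of the secondary pulse compared with the same well before compound.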

Sequence of human ether-à-go-go-related gene (hERG) potassium channel (Q12809 whole entry, looked up): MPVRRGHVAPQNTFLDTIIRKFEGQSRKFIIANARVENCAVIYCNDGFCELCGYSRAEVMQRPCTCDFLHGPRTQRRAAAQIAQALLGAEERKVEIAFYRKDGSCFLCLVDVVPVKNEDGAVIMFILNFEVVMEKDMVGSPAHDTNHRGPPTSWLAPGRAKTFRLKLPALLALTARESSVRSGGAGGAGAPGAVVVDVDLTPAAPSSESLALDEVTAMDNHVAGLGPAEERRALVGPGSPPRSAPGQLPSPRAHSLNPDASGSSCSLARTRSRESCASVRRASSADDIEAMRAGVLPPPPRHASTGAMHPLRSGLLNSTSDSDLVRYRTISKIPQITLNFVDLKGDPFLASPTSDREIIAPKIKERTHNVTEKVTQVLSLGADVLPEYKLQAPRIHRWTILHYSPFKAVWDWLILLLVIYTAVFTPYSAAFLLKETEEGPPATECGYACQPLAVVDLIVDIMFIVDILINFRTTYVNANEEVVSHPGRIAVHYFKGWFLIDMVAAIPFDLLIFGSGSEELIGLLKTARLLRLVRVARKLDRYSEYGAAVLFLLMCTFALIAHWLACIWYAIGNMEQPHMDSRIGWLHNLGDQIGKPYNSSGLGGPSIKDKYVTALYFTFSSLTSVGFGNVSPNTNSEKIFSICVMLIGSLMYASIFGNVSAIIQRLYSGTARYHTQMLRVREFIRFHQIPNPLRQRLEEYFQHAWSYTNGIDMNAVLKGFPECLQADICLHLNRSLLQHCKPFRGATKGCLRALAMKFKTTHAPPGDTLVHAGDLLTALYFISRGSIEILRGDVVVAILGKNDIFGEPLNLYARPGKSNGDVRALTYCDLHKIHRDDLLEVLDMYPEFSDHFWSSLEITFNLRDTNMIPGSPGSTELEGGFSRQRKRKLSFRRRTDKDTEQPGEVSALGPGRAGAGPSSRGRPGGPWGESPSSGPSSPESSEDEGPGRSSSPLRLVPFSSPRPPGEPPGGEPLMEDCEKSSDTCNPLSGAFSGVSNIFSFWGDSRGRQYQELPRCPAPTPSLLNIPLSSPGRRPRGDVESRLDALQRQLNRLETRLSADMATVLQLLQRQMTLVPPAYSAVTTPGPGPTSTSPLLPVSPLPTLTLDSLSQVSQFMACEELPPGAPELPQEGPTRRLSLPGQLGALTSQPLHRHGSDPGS

SMILES	hERG current change (%, negative = inhibition) at 10uM [%]
CC(=O)Nc1cc(C(C)(C)C)c(O)c(C(C)(C)C)c1	14.4
CN(C)CCOC1c2ccccc2CCc2ccc3ccccc3c21.O=C(O)C(=O)O (stereo not drawn)	-1.36
COc1cccc(C(=O)Nc2ccc(NC(=O)c3ccco3)c(Cl)c2)c1	21.7
COc1cccc(C2=CC(=O)C[C@H](c3ccc4c(c3)OCO4)C2)c1	-38
Cc1cc(C)cc(N(CCC#N)C(=O)COC(=O)CCc2c[nH]c3ccccc23)c1	-32.6
Nc1nc(NC(=O)c2cccnc2)nn1-c1ccccc1	18.8
Cc1ccc(C(C(=O)NC2CCCC2)N(C(=O)Cc2cccs2)c2cccc(C)c2C)o1 (stereo not drawn)	10.2
CCOC(=O)c1ccc(NC(=S)NCCC2=CCCCC2)cc1	28.5
Cc1ccc2cccc(Oc3cnccn3)c2n1	1.04
CC1CCCN(S(=O)(=O)c2ccc(C(=O)Nc3nnc(-c4ccncc4)o3)cc2)C1 (stereo not drawn)	1.86
CN=C(Nc1ccc(Cl)cc1)c1ccc(C(F)(F)F)cc1	-17.8
Cc1ccccc1NC(=O)C(C)N1C(=O)c2ccccc2C1=O (stereo not drawn)	14.7
CCN1C(=O)CS/C1=N\S(=O)(=O)c1ccc(Cl)cc1	18
NC(=O)c1cc(-c2ccccc2)nc2ccc(Br)cc12	13.7
CC(=O)Nc1sc(N/N=C/c2ccc(C)cc2)nc1-c1ccc(C)cc1	0.792
Cc1cc(NC(=O)CS(=O)(=O)c2ccc(F)cc2)no1	-7.77
CCn1ncc(C2=NOC(C(=O)Nc3ccccc3C(=O)OC)C2)c1C (stereo not drawn)	-15.9
O=[N+]([O-])c1ccccc1OCCN1CCCC1	5.97
N/C(=N\OC(=O)CCC1CCCCC1)c1cccc([N+](=O)[O-])c1	-15.1

SMILES	hERG current change (%, negative = inhibition) at 10uM [%]
C[n+]1ccccc1C1CCCC/C1=N\NC(N)=S.[Cl-] (stereo not drawn)	35.8
COc1ccc(-c2nn(-c3ccccc3)cc2CN(C)CCn2ccnc2C)c(F)c1	-57.6
Cc1ccc2[nH]c(=O)c(CN(Cc3ccccc3)Cc3nnnn3C3CCCC3)cc2c1	-6.83
O=C(NCCCc1ccccc1)c1ccccc1O	-0.415
CCOc1ccc(CNCCCSc2ncccn2)cc1OC.Cl	-20.3
CC(=O)c1c(N2CCCCC2)nc(=O)n(-c2ccccc2)c1C	9.17
O=C1c2cccc(OCC(=O)N3CCCc4ccccc43)c2CCN1Cc1ccccc1	-17.8
O=C(O)c1cc([N+](=O)[O-])c(Sc2nc3ccccc3[nH]2)c([N+](=O)[O-])c1	3.61
C/C(=N\NC(=O)c1ccc([N+](=O)[O-])c(C)c1)c1ccccc1Cl	-1.51
Cc1cccc(NC(=O)CCCN=C2NS(=O)(=O)c3ccccc32)c1C	5.14
COc1ccc(Nc2oc(-c3ccccc3F)nc2C#N)cc1	22.3
Cc1ccc(N2C(=O)Nc3ccccc3C2(O)C(=O)N2CCN(c3ccccn3)CC2)cc1C (stereo not drawn)	4.54
c1csc(-c2nnsc2-c2nc3ccccc3[nH]2)c1	-7.14
COc1ccc(-c2csc(NCc3ccco3)n2)cc1	2.59
Cc1ccc(C2NC(=O)CCC2[N+](=O)[O-])cc1 (stereo not drawn)	13
O=C(Nc1ccc2c3c(cccc13)CC2)c1cccc([N+](=O)[O-])c1	-4.61
CCN(c1ccccc1)c1nc(=O)c2cccnc2s1	-13.8
Cc1ccc2c(C)[nH]c(=O)cc2c1	-0.081
Cc1cc(C)cc(NC(=O)CSc2nnc(Cn3c(=O)sc4ccccc43)n2C)c1	-8.19

SMILES	hERG current change (%, negative = inhibition) at 10uM [%]
C/C(=N\NC(=O)c1ccc(CSc2nc(C)cc(C)n2)cc1)C1CCCCC1	-10.2
O=C(O)CCc1nn2c3ccccc3n(Cc3ccccc3F)c2nc1=O	19.7
CC(C)(c1ccccc1)c1ccc(OCCN2CCOCC2)cc1.Cl	-25.5
CCc1cccc(CC)c1NC(=S)NCc1ccc2[nH]c(C)cc2c1	-3.12
Cn1ncc(Cl)c1C(=O)Nc1sc2c(c1C(N)=O)CCC2	-4.17
CCOP(=O)(Oc1ccccc1)c1c([N+](=O)[O-])cc(C(F)(F)F)cc1[N+](=O)[O-] (stereo not drawn)	14.3
O=C1CCN(S(=O)(=O)c2cc(C(F)(F)F)ccc2Cl)CC1	-1.34
COC(=O)C1=C(c2ccc(F)cc2OCc2ccccc2)C[C@@H]2CC[C@H]1N2C(=O)NCc1ccc(Cl)cc1	7.04
O=c1c(-c2ccccc2)c(O)c2c(n1-c1ccccc1)CCCC2	-7.4
CN(C)c1cccc(C(=O)NC2CCCCCC2)c1	5.08
COC(=O)c1ccc(CN2CCN(C(C)C)C(CCO)C2)cc1 (stereo not drawn)	3.39
Cc1ccc(S(=O)(=O)C2(C(=O)Nc3nccs3)CC2)cc1	-10.4
Cc1[nH]n(-c2ccccc2)c(=O)c1/C=N/NC(=O)COc1ccccc1[N+](=O)[O-]	19.7
CN(C)N1C(=O)CC(N2CCCCC2)C1=O (stereo not drawn)	6.08
O=C(Cn1ncn2c(cc3ccccc32)c1=O)NCCCc1ccccc1	5.88
CC(C)CC(C(=O)NC1CCCCC1)N(Cc1ccccc1)C(=O)c1snc(C(N)=O)c1N (stereo not drawn)	-10.4
O=C(c1cccc(NS(=O)(=O)c2ccccc2)c1)N1CCCC1	16.9
Cc1cc(=O)[nH]c(N2CCN(C(c3ccccc3)c3ccccc3)CC2)n1	18.6
CN(C)c1ccc(C2Nc3ccccc3C(=O)N2NS(=O)(=O)c2ccccc2)cc1 (stereo not drawn)	16.7
